According to PMC4336329 (PLoS ONE, 2015):
Among all 310,000 compounds or so, about 2,200 (0.71%) showed an effect of 50% or more. The effect is printed as a negative number. The list shows a part of the results.

What follows are compounds tested against human ether-à-go-go-related gene (hERG) potassium channel (human, UniProt Q12809) (assay: primary screen, population patch clamp on CHO cells stably expressing hERG).
Chain of human ether-à-go-go-related gene (hERG) potassium channel (Q12809 whole entry, looked up): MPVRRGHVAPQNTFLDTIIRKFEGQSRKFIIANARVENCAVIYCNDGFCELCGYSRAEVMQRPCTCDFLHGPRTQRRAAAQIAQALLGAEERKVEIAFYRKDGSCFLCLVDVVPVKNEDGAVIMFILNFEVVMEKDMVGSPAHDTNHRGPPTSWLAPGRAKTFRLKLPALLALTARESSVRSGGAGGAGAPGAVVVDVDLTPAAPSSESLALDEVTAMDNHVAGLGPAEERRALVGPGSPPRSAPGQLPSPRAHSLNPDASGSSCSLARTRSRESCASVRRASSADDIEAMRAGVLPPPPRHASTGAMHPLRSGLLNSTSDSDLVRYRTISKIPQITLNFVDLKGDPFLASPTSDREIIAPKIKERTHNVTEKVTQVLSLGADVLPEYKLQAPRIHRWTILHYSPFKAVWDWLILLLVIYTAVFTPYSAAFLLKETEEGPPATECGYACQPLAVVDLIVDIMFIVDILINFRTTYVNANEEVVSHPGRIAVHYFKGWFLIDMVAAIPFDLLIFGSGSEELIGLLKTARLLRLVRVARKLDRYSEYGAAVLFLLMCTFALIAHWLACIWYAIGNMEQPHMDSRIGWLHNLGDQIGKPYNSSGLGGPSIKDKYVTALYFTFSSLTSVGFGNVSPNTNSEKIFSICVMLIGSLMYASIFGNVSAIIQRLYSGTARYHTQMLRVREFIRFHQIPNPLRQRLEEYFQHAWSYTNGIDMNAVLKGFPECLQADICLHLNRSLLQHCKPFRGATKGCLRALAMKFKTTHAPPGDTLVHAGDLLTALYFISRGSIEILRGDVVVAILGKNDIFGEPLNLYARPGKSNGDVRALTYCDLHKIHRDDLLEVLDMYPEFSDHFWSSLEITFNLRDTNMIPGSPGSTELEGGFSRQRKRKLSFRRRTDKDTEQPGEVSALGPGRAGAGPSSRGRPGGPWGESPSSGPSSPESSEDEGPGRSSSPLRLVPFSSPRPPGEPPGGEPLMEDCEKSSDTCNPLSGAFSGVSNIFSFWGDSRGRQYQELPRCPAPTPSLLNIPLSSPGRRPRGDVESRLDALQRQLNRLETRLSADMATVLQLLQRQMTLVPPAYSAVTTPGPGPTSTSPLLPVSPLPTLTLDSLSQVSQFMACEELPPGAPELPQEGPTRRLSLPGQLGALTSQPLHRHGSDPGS

| SMILES | hERG current change (%, negative = inhibition) at 1uM [%] |
| --- | --- |
| O=C(Nc1ccc2c(c1)OCO2)N1CCN(S(=O)(=O)c2ccc(Cl)cc2)CC1 | -2.72 |
| Cc1ccc(N=C2SCCCN2C(=O)C2=COCCO2)cc1Cl | 20.1 |
| O=C(Nc1cc(-c2nc3ncccc3o2)ccc1Cl)c1ccc([N+](=O)[O-])o1 | -3.77 |
| O=C(CSCC(=O)OCC(=O)c1ccc(Br)cc1)Nc1cccc2ccccc12 | 9.43 |
| CC(C)/C=C1\CC/C(=C\c2ccc(N(C)C)cc2)C1=O | 12.4 |
| Cc1sc2ncn(CC(=O)NCCCC(=O)N3CCN(c4ccccc4)CC3)c(=O)c2c1C | -3.48 |
| CCCN1CCC(N2CCN(c3cccc(C(F)(F)F)c3)CC2)CC1 | -31.5 |
| Nc1ccc(C(=O)N/N=C\C=C\c2ccc([N+](=O)[O-])cc2)cc1 | 6.63 |
| Cc1ccc(C(=O)CN2C(=O)NC3(CCCCC3C)C2=O)s1 (centres unmarked) | 3.21 |
| Cc1cccc2cc(C#N)c(NCCNC(=S)NCCCN3CCOCC3)nc12 | 4.84 |
| CC(=O)c1cccc(CN2CCCC(C(=O)c3ccc4c(c3)OCO4)C2)c1 (centres unmarked) | -18.6 |
| COc1ccc(OCC(=O)NNC(=S)NC(=O)c2ccc(Br)o2)cc1 | 7.66 |
| COc1cc(C2NC(=O)c3ccccc3O2)ccc1OC(C)C (centres unmarked) | 14.6 |
| O=C(Nc1nc2c(s1)CCc1ccccc1-2)c1ccco1 | -2.37 |
| COc1cccc(-n2c(C)nn(CCOc3ccccc3)c2=O)c1 | 5.95 |
| COC(=O)[C@H](C)NC(=O)Nc1ccc(C)c(C)c1 | 15.2 |
| COCCn1nnnc1C(c1ccccc1OC)N1CCN(C(=O)c2ccco2)CC1 (centres unmarked) | -5.55 |
| O=[N+]([O-])c1ccc(C(O)CNC(=S)Nc2ccccc2)cc1 (centres unmarked) | 5.73 |
| CCOC(=O)N1CCN(C(=O)C(=O)NN)CC1 | 4.73 |
| CCCN(CC(=O)Nc1ccccc1OC)C(=O)c1ccncc1 | 12.3 |
| O=C(COc1cccc2cccnc12)NCC(F)(F)F | 10.5 |
| COc1ccc(NC(=O)CCCC2CCCCC2)c(OC)c1 | 11.3 |
| Fc1ccccc1-c1nc(N2CCCCC2)c2ccccc2n1 | 13.4 |

| SMILES | hERG current change (%, negative = inhibition) at 1uM [%] |
| --- | --- |
| COC(=O)c1[nH]c2ccccc2c1NC(=O)c1ccccc1[N+](=O)[O-] | 6.34 |
| COc1ccc([C@H]2/C=C\CN(C(=O)C3CC3)[C@@H](C)C(=O)N2Cc2ccc(F)cc2)cc1 | 1.06 |
| O=C(CN1C(=O)NC2(CCCCC2)C1=O)NNC(=O)C1CC1 | 13.3 |
| CNC(=O)CSc1nnc(-c2cccs2)o1 | 9.39 |
| CCOc1ccc(NC(=O)CN(C)c2ccc(S(=O)(=O)N(C(C)C)C(C)C)cn2)cc1OCC | 4.93 |
| CCOC(=O)c1cccc(N2C(=O)c3ccccc3S2(=O)=O)c1 | -24.4 |
| COc1ccc(CNC(=O)C(C)N2CCN(S(=O)(=O)c3ccccc3F)CC2)cc1 (centres unmarked) | 8.52 |
| CCOc1ccccc1NC(=O)CSc1nnnn1C1CCCC1 | 2.98 |
| O=C(Nc1ccc(F)cc1)c1cccc2c1C(=O)N(Cc1ccccn1)C2 | -17.6 |
| Cc1cccc(C)c1-n1ncc(C(=O)NC2CCCC2)c1C1CCNCC1 | 15.2 |
| O=C(c1cccc(Oc2ccc([N+](=O)[O-])cc2Cl)c1)N1CCOCC1 | 0.772 |
| O=C(CSc1nnc(Cc2ccccc2)o1)NCCc1ccccc1 | 7.62 |
| COc1ccc(C(=O)Cn2cnc3ccc(Cl)cc3c2=O)cc1F | 13.8 |
| O=c1c2ccccc2nc(SCC2CCCCO2)n1-c1ccccc1 (centres unmarked) | 5.87 |
| O=C(NCc1cccnc1)NC1(c2ccccc2)CC1 | 19.7 |
| COc1ccccc1C(=O)NC(=O)CSc1nnc(SC)s1 | 8.29 |
| COc1cccc(COC(=O)C2CCN(C(=O)c3ccc(F)cc3)CC2)c1OC | 12.5 |
| COC(=O)c1ccc(/C=N\N2CCN(c3ccccc3)CC2)cc1 | 16.1 |
| CCOc1cc2c(cc1OCC)-n1cccc1C(c1ccc(F)cc1)NC2.Cl (centres unmarked) | 2.16 |
| COc1cccc(CNC(=O)Nc2cccs2)c1 | 12.5 |
| CCOC(=O)CNC(=O)CSc1ncnc2c1cnn2-c1ccccc1 | -6.16 |
| CN(CCC#N)C(=O)CSc1ncnc2sc(-c3ccccc3)cc12 | 11.4 |
| COc1cccc(C(=O)COC(=O)c2ccc(NC(C)=O)cc2)c1 | 13.1 |

| SMILES | hERG current change (%, negative = inhibition) at 1uM [%] |
| --- | --- |
| FC(F)(F)c1n[nH]c(=S)n1/N=C/c1ccco1 | 3.81 |
| CCS(=O)(=O)Nc1cc(-c2nc3cccnc3s2)ccc1C | 9.93 |
| S=c1[nH]nc(CN2CCCC2)n1Cc1ccccc1 | -3.66 |
| CC(=O)c1c(C)[nH]c(C(=O)CN2C(=O)NC(C)(c3ccc(C)cc3)C2=O)c1C (centres unmarked) | 23.5 |
| CCOC(=O)C1(CCOc2ccccc2)CCN(S(=O)(=O)N(C)C)CC1 | 9.42 |
| CN1CCN(C(=O)c2ccc3c(c2)N(Cc2cccc(Cl)c2)C(=O)c2ccccc2S3(=O)=O)CC1 | 12.3 |
| Cc1ncsc1CCC(=O)N1CCCC(C(=O)c2ccc3c(c2)OCO3)C1 (centres unmarked) | 1.98 |
| N#Cc1ccc(OCC(=O)Nc2ccc3[nH]c(=O)[nH]c3c2)cc1 | 5.61 |
| CN(C)/C=C1\SC(=S)N(c2ccc(F)cc2)C1=O | 12.2 |
| CCOc1ccc([C@@H]2CC=C(C(=O)O)[C@H](c3cccc(Cl)c3)N2S(=O)(=O)c2ccc(C)cc2)cc1 | 8.8 |
| O=C(NCCCn1ccnc1)c1ccc(N2CCCCC2)c([N+](=O)[O-])c1 | -54.1 |
| CC(C)CN(C(=O)CC1OC(=O)c2ccccc21)c1c(N)n(Cc2ccccc2)c(=O)[nH]c1=O (centres unmarked) | 4.83 |
| CCCOc1ccc(NC(=O)CC2C(=O)N(CC)C(=S)N2CCNC(C)=O)cc1 (centres unmarked) | 4.54 |
| O=C(CCN1C(=O)c2ccccc2S1(=O)=O)N1CCN(c2ccc(F)cc2)CC1 | -27.1 |
| CC(C)Cn1c(-c2ccccc2F)n[nH]c1=S | 8.34 |
| CC1CCCCC1NC(=O)COC(=O)CNC(=O)c1cccc(F)c1 (centres unmarked) | 8.09 |
| COC(=O)c1cn(NC(=O)CCC2CCCC2)c(=O)c2ccccc12 | 1.9 |
| CCN(CC)S(=O)(=O)c1ccc(C(=O)NNC(=O)c2cccs2)cc1 | -5.18 |
| Cc1ccc(S(=O)(=O)c2cc3cc(Br)ccc3oc2=O)cc1 | 5.4 |
| CS/C(=N\S(=O)(=O)c1cccs1)Nc1ccc(F)cc1 | 7.36 |
| Cc1ccccc1NC(=S)N1CCC(C(=O)c2ccc(F)cc2)CC1 | -25.1 |
| Cc1ccc(C(=O)N(C)Cc2ccc(N3CCOCC3)cc2)cc1S(=O)(=O)NCc1ccccc1 | 1.2 |
| CC1CCN(CCCNC(=O)c2ccc3c(Cl)c4c(nc3c2)CCCC4)CC1 | -2.53 |

| SMILES | hERG current change (%, negative = inhibition) at 1uM [%] |
| --- | --- |
| COc1ccc(/C(N)=N/OC(=O)CCc2ccccc2)cc1 | 4.26 |
| COc1ccc(C(CNC(=O)Cn2c(=O)oc3ccccc32)N(C)C)cc1 (centres unmarked) | 14.2 |
| COc1ccc(S(=O)(=O)N2CCCCCC2)cc1C(=O)N(C)CCOc1ccc(Cl)cc1 | 2.56 |
| CC(C)CNC(=O)c1cccc(NC(=O)c2ccco2)c1 | 8.63 |
| CCC(=O)N1N=C(c2ccc(Cl)cc2)CC1c1ccco1 (centres unmarked) | 8.31 |
| CC(C)CCn1c(COc2ccccc2)nn(CCC#N)c1=S | -1.61 |
| COc1ccc(NC(=O)C2CCN(C(=O)NCc3ccccc3)CC2)cc1 | -10.2 |
| COc1ccc(-n2nc(C(=O)NCC(=O)N3CCC(C)CC3)c3ccccc3c2=O)cc1 | 16.3 |
| CCOC(=O)CSc1nc2sc(C)c(C)c2c(=O)n1C | 2.14 |
| CC1CCC(NC(=O)CSc2nnnn2C)CC1 (centres unmarked) | 8.39 |
| CC(=O)N/C(=C/c1ccc(Cl)cc1)C(=O)NCCc1c[nH]c2ccccc12 | -3.7 |
| CCCCC(=O)Nc1nc2c(OC)cc([N+](=O)[O-])cc2s1 | 7.5 |
| CCCOc1ccc(N2CC(C(=O)NC(C)C)CC2=O)cc1 (centres unmarked) | -4.12 |
| COCCn1cnc2c(c1=O)c1nc3ccccc3nc1n2/N=C/c1ccc(OC)c(OC)c1 | 12.9 |
| CCOc1ccc(NC(=O)CSc2ncn[nH]2)cc1 | 5.56 |
| Cc1ccc(Cl)cc1N1CCN(S(=O)(=O)c2c(C(=O)N3CCOCC3)c(C)n(C)c2C)CC1 | -4.41 |
| COc1cc2[nH]c(-c3cccc(F)c3)cc(=O)c2cc1OC | 18.3 |
| CC(C)(C)c1cc(NCc2ccccn2)n2ncc(-c3ccc(Cl)cc3)c2n1 | 17.4 |
| C/C=C/c1ccc(OCC(O)CN(C)Cc2ccc(SC)cc2)c(OC)c1.O=C(O)C(=O)O (centres unmarked) | -25.4 |
| Cc1ccccc1NC1=NCC(c2ccc([N+](=O)[O-])cc2)S1 (centres unmarked) | -5.3 |
